Source: the supplement of paper PMC10369915
This is one part of the list. No stated cut-off is given here; in the data, active = 3.2 or more and inactive = the rest. The signal is at background level for most entries.

molecular target: SHP2 C-SH2 domain E139D; experiment: enrichment score (SH2-bound / input frequency) (ratio); bacterial display of known human phosphotyrosine sites (pTyr-Var adds point mutants) read by sequencing; higher = stronger binding; tyrosines were phosphorylated by kinases first; conditions: peptide library: pTyr-Var
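Further: displayed peptides selected on beads carrying the immobilized SH2 domain, with library peptides lacking any tyrosine serving as negative controls.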

Enrichment score, inactive:
GLDSSYLLRDS [SH2D1A_Y29_G27S] 0.677
GLDGSYLLRYS [SH2D1A_Y29_D33Y] 0.788
LRFKQYLRNPP [SHC1_Y315] 0.71
TEQMAYCPIQC [SHC4_Y403] 0.659
KSIQLYDTPYE [SHB_Y297_G293S] 1.13
DPMNTYARPAE [SGMS2_Y24_T21M] 0.755
LLNAIYLSAKW [SERPING1_Y294] 1.37
NSNSDYVDILP [SH2D1B_Y127_V130I] 0.63
KKFPDYIQSAM [SGMS2_Y59_I62S_YF] 1.03
FLLTVYSIFSK [SGCE_Y38] 2.47
PNATLYKMTSI [SERPINA7_Y40_S43T] 0.565
QTWKTYVRHQQ [SFI1_Y164_Q167H] 1.1
DAVAVYDGKIS [SH2D1A_Y7_H8D] 0.905
RPFFLYVAFHN [SGSH_Y174_D179N] 0.322
FLLRVYSIFSK [SGCE_Y38_T36R] 2.21
IVGRLYRLLTE [SETX_Y1978_L1976R] 1.34
DPTFGYEDFTR [SESN2_Y323] 1.01
AKKVFYMIETR [SHH_Y253_V254M] 3

molecular target: SHP2 C-SH2 domain wild-type; experiment: as above; conditions: peptide library: pTyr-Var

Enrichment score, active:
AKKVFYMIETR [SHH_Y253_V254M] 3.28

Enrichment score, inactive:
GLDSSYLLRDS [SH2D1A_Y29_G27S] 0.694
GLDGSYLLRYS [SH2D1A_Y29_D33Y] 0.831
LRFKQYLRNPP [SHC1_Y315] 0.599
TEQMAYCPIQC [SHC4_Y403] 0.803
KSIQLYDTPYE [SHB_Y297_G293S] 0.831
DPMNTYARPAE [SGMS2_Y24_T21M] 0.553
LLNAIYLSAKW [SERPING1_Y294] 1.7
NSNSDYVDILP [SH2D1B_Y127_V130I] 0.624
KKFPDYIQSAM [SGMS2_Y59_I62S_YF] 0.847
FLLTVYSIFSK [SGCE_Y38] 2.16
PNATLYKMTSI [SERPINA7_Y40_S43T] 0.651
QTWKTYVRHQQ [SFI1_Y164_Q167H] 1.17
DAVAVYDGKIS [SH2D1A_Y7_H8D] 0.616
RPFFLYVAFHN [SGSH_Y174_D179N] 0.564
FLLRVYSIFSK [SGCE_Y38_T36R] 1.85
IVGRLYRLLTE [SETX_Y1978_L1976R] 1.06
DPTFGYEDFTR [SESN2_Y323] 0.914

molecular target: SHP2 N-SH2 domain L43F; experiment: as above; conditions: peptide library: pTyr-Var

Enrichment score, inactive:
GLDSSYLLRDS [SH2D1A_Y29_G27S] 0.77
GLDGSYLLRYS [SH2D1A_Y29_D33Y] 0.732
LRFKQYLRNPP [SHC1_Y315] 0.646
TEQMAYCPIQC [SHC4_Y403] 0.701
KSIQLYDTPYE [SHB_Y297_G293S] 0.975
DPMNTYARPAE [SGMS2_Y24_T21M] 0.558
LLNAIYLSAKW [SERPING1_Y294] 1.06
NSNSDYVDILP [SH2D1B_Y127_V130I] 0.806
KKFPDYIQSAM [SGMS2_Y59_I62S_YF] 0.963
FLLTVYSIFSK [SGCE_Y38] 2.18
PNATLYKMTSI [SERPINA7_Y40_S43T] 0.713
QTWKTYVRHQQ [SFI1_Y164_Q167H] 1.13
DAVAVYDGKIS [SH2D1A_Y7_H8D] 0.734
RPFFLYVAFHN [SGSH_Y174_D179N] 0.408
FLLRVYSIFSK [SGCE_Y38_T36R] 1.8
IVGRLYRLLTE [SETX_Y1978_L1976R] 1.16
DPTFGYEDFTR [SESN2_Y323] 0.75
AKKVFYMIETR [SHH_Y253_V254M] 2.89

molecular target: SHP2 N-SH2 domain T42A; experiment: as above; conditions: peptide library: pTyr-Var

Enrichment score, inactive:
GLDSSYLLRDS [SH2D1A_Y29_G27S] 0.61
GLDGSYLLRYS [SH2D1A_Y29_D33Y] 0.941
LRFKQYLRNPP [SHC1_Y315] 0.696
TEQMAYCPIQC [SHC4_Y403] 0.879
KSIQLYDTPYE [SHB_Y297_G293S] 0.6
DPMNTYARPAE [SGMS2_Y24_T21M] 0.574
LLNAIYLSAKW [SERPING1_Y294] 1.13
NSNSDYVDILP [SH2D1B_Y127_V130I] 0.614
KKFPDYIQSAM [SGMS2_Y59_I62S_YF] 0.98
FLLTVYSIFSK [SGCE_Y38] 2.07
PNATLYKMTSI [SERPINA7_Y40_S43T] 0.695
QTWKTYVRHQQ [SFI1_Y164_Q167H] 1.2
DAVAVYDGKIS [SH2D1A_Y7_H8D] 0.877
RPFFLYVAFHN [SGSH_Y174_D179N] 0.374
FLLRVYSIFSK [SGCE_Y38_T36R] 1.6
IVGRLYRLLTE [SETX_Y1978_L1976R] 1.1
DPTFGYEDFTR [SESN2_Y323] 0.756
AKKVFYMIETR [SHH_Y253_V254M] 2.46

molecular target: SHP2 N-SH2 domain T52S; experiment: as above; conditions: peptide library: pTyr-Var

Enrichment score, inactive:
GLDSSYLLRDS [SH2D1A_Y29_G27S] 0.658
GLDGSYLLRYS [SH2D1A_Y29_D33Y] 1.11
LRFKQYLRNPP [SHC1_Y315] 0.67
TEQMAYCPIQC [SHC4_Y403] 0.723
KSIQLYDTPYE [SHB_Y297_G293S] 0.781
DPMNTYARPAE [SGMS2_Y24_T21M] 0.496
LLNAIYLSAKW [SERPING1_Y294] 1.18
NSNSDYVDILP [SH2D1B_Y127_V130I] 0.882
KKFPDYIQSAM [SGMS2_Y59_I62S_YF] 0.845
FLLTVYSIFSK [SGCE_Y38] 2.05
PNATLYKMTSI [SERPINA7_Y40_S43T] 0.569
QTWKTYVRHQQ [SFI1_Y164_Q167H] 1.78
DAVAVYDGKIS [SH2D1A_Y7_H8D] 0.931
RPFFLYVAFHN [SGSH_Y174_D179N] 0.358
FLLRVYSIFSK [SGCE_Y38_T36R] 2.24
IVGRLYRLLTE [SETX_Y1978_L1976R] 1.2
DPTFGYEDFTR [SESN2_Y323] 0.767
AKKVFYMIETR [SHH_Y253_V254M] 2.82

molecular target: SHP2 N-SH2 domain wild-type; experiment: as above; conditions: peptide library: pTyr-Var

Enrichment score, inactive:
GLDSSYLLRDS [SH2D1A_Y29_G27S] 0.663
GLDGSYLLRYS [SH2D1A_Y29_D33Y] 0.947
LRFKQYLRNPP [SHC1_Y315] 0.57
TEQMAYCPIQC [SHC4_Y403] 0.859
KSIQLYDTPYE [SHB_Y297_G293S] 0.835
DPMNTYARPAE [SGMS2_Y24_T21M] 0.597
LLNAIYLSAKW [SERPING1_Y294] 1.63
NSNSDYVDILP [SH2D1B_Y127_V130I] 0.687
KKFPDYIQSAM [SGMS2_Y59_I62S_YF] 1.03
FLLTVYSIFSK [SGCE_Y38] 2.07
PNATLYKMTSI [SERPINA7_Y40_S43T] 0.729
QTWKTYVRHQQ [SFI1_Y164_Q167H] 1.16
DAVAVYDGKIS [SH2D1A_Y7_H8D] 1.21
RPFFLYVAFHN [SGSH_Y174_D179N] 0.416
FLLRVYSIFSK [SGCE_Y38_T36R] 1.78
IVGRLYRLLTE [SETX_Y1978_L1976R] 0.926
DPTFGYEDFTR [SESN2_Y323] 0.927
AKKVFYMIETR [SHH_Y253_V254M] 2.99
